Some of the results follow.

The labels stand for the following.
B1: PhoQ; a variant is named by its letters at X, in order, P23837 (parent)
chain: MKKLLRLFFPLSLRVRFLLATAAVVLVLSLAYGMVALIGYSVSFDKTTFRLLRGESNLFYTLAKWENNKLHVELPENIDKQSPTMTLIYDENGQLLWAQRDVPWLMKMIQPDWLKSNGFHEIEADVNDTSLLLSGDHSIQQQLQEVREDDDDAEMTHSVAVNVYPATSRMPKLTIVVVDTIPVELKSSYMVWSWFIYVLSANLLLVIPLLWVAAWWSLRPIEALAKEVRELEEHNRELLNPATTRELTSLVRNLNRLLKSERERYDKYRTTLTDLTHSLKTPLXXLQXXLRSLRSEKMSVSDAEPVMLEQISRISQQIGYYLHRASMRGGTLLSRELHPVAPLLDNLTSALNKVYQRKGVNISLDISPEISFVGEQNDFVEVMGNVLDNACKYCLEFVEISARQTDEHLYIVVEDDGPGIPLSKREVIFDRGQRVDTLRPGQGVGLAVAREITEQYEGKIVAGESMLGGARMEVIFGRQHSAPKDE

In this experiment the parent is B1. Nature of the experiment: enrichment ratio after two sorts for PhoP signalling (ratio (wild type AVST 3.29)); higher = more functional. The note with it: with PhoP (E. coli).
As for DTYT, the enrichment ratio is not above 0.25.
KCMF: the enrichment ratio was not above 0.25.
Then DCTI, with not above 0.25; and MKTY, with not above 0.25.
WEFY: the enrichment ratio was not above 0.25.
For AIPS the value was not above 0.25; for WIDR, not above 0.25.
Then KQPT, with not above 0.25; and GPHP, with not above 0.25; and RQGR, with not above 0.25.
Then FTML, with 12; and KHCL, with not above 0.25; and DPGY, with not above 0.25.
Consider WKCG, for which the enrichment ratio is not above 0.25.
Then FQVD, with not above 0.25.
HHPE: the enrichment ratio is not above 0.25.
Then MTHY, with not above 0.25; and FFGS, with not above 0.25; and AYQG, with not above 0.25.
For RWCN the value was not above 0.25; for GYMS, not above 0.25.
For TYRV the value was not above 0.25.
Regarding WASG, the enrichment ratio was not above 0.25.
For SITQ the value was 7.2.
For DWEN the value was not above 0.25; for FFCM, 0.845.
For the variant HPIN, the enrichment ratio was not above 0.25.
As for MHPC, the enrichment ratio is not above 0.25.
For DPNY the value was not above 0.25; for YLTP, not above 0.25; for YCCK, not above 0.25.
For the variant SSAK, the enrichment ratio was not above 0.25.
Then VPPD, with not above 0.25.
Then EVPK, with not above 0.25; and NDME, with not above 0.25; and GLDT, with not above 0.25.
Then IYPT, with not above 0.25.
On to MNEH, for which the enrichment ratio was not above 0.25.
For LMPG the value was not above 0.25.
For SYVM the value was 0.307; for GTSG, 0.936.
Then LIHI, with not above 0.25; and WEYM, with not above 0.25.
As to YPVW, the enrichment ratio is not above 0.25.
For the variant DRPI, the enrichment ratio was not above 0.25.
For KDHW the value was not above 0.25.
Consider SYEP, for which the enrichment ratio was not above 0.25.
In the case of SQHE, the enrichment ratio is not above 0.25.
In the case of WEEV, the enrichment ratio was not above 0.25.
Then WYKN, with not above 0.25; and MSFG, with 4.23; and PQCW, with not above 0.25.
Then RAMH, with not above 0.25; and QYYI, with not above 0.25.
For DQTY the value was not above 0.25; for WISY, not above 0.25; for TKQN, not above 0.25.
In the case of GRQI, the enrichment ratio was not above 0.25.
For SRCC the value was 0.803; for IPCN, not above 0.25; for IRVL, not above 0.25.
Then VSRI, with not above 0.25; and HQKG, with not above 0.25; and WTMC, with not above 0.25.
Consider QPQP, for which the enrichment ratio is not above 0.25.
Then TLLP, with 0.257; and QQHQ, with not above 0.25; and TVLI, with 0.851.
For WRIK the value was not above 0.25; for HMRP, not above 0.25.
For YTHC the value was not above 0.25; for WQWH, not above 0.25.
As for YTAD, the enrichment ratio was not above 0.25.
For IMTH, the enrichment ratio was not above 0.25.
For VKIK the value was not above 0.25; for MTVA, not above 0.25.
For YVLM the value was 4.78.
Regarding DKAY, the enrichment ratio was not above 0.25.
Then YVLQ, with 2.38; and PIRS, with not above 0.25.
As to PQRT, the enrichment ratio was not above 0.25.
Then TMEL, with 15.3.
Then NMEC, with not above 0.25.
For NMAN the value was not above 0.25; for AGYT, 0.289.
Consider YGYV, for which the enrichment ratio was not above 0.25.
For GIKN the value was not above 0.25; for SSDN, not above 0.25.
In the case of PMKD, the enrichment ratio is not above 0.25.
Then VECV, with 9.31; and AFIN, with not above 0.25.
Then GYMG, with not above 0.25; and INFR, with not above 0.25.
Then YVTI, with 0.32.
As to PSYM, the enrichment ratio is not above 0.25.
For NYMN the value was not above 0.25; for HTKS, not above 0.25.
Then SVIM, with not above 0.25.
Then PYKR, with not above 0.25; and SLQY, with not above 0.25; and TNGG, with 7.52.
As to ARTL, the enrichment ratio is 8.25.
For PAYK the value was not above 0.25.
For TAHG the value was 1.9; for FLGH, not above 0.25; for VDWL, not above 0.25.
Then TEVL, with 9.29.
Regarding AGPL, the enrichment ratio is not above 0.25.
For RSCI the value was not above 0.25.
For VYTM the value was not above 0.25; for KNAS, not above 0.25.
For SHPP the value was not above 0.25; for VAHM, 0.984.
MTVV: the enrichment ratio was not above 0.25.
For EKSG the value was not above 0.25; for ELQP, not above 0.25; for IDFV, not above 0.25.
Then LNCG, with 0.325; and YCRN, with not above 0.25.
With WIYG, the enrichment ratio was not above 0.25.
For LILW the value was not above 0.25.
Regarding TLPW, the enrichment ratio was not above 0.25.
Then RYVN, with not above 0.25; and IFTI, with not above 0.25; and IALF, with not above 0.25.
For WTYS the value was not above 0.25; for LQHR, not above 0.25; for QKFF, not above 0.25.
Then LAAP, with not above 0.25; and RVEI, with not above 0.25; and PSPI, with not above 0.25.
With EMFQ, the enrichment ratio was not above 0.25.
As to KSHW, the enrichment ratio was not above 0.25.
For GVTQ the value was not above 0.25; for KIGV, not above 0.25; for MQTY, not above 0.25.
Then IERR, with not above 0.25.
Then MGMH, with not above 0.25.
FTRN: the enrichment ratio is not above 0.25.
Then YCTM, with 0.558.
For QNVT the value was not above 0.25; for HDKG, not above 0.25.
For HWHS the value was not above 0.25; for QQLM, not above 0.25.
Take SLCY: the enrichment ratio came to 2.99.
For EEPM the value was not above 0.25.
Then GMAC, with not above 0.25.
Then GQFY, with not above 0.25; and ITVH, with not above 0.25.
For the variant WHAY, the enrichment ratio was not above 0.25.
As to LNKP, the enrichment ratio was not above 0.25.
As to KEFD, the enrichment ratio was not above 0.25.
Then MDNF, with not above 0.25.

These data come from a collection of fitness landscapes (doi:10.1126/science.1257360).
